Data from the supplement of paper PMC10369915.
The other results are listed elsewhere or left out. Cut-off read from the data, not from the text of the source: active = 3.2 or more and inactive = the rest. Only a few entries rise above the background.

What was measured:
Assay in all cases: enrichment score (SH2-bound / input frequency) (ratio); bacterial display of known human phosphotyrosine sites (pTyr-Var adds point mutants) read by sequencing; higher = stronger binding; tyrosines were phosphorylated by kinases first
Settings in all cases: peptide library: pTyr-Var
[1] = molecular target: SHP2 C-SH2 domain E139D
[2] = molecular target: SHP2 C-SH2 domain wild-type
[3] = molecular target: SHP2 N-SH2 domain L43F
[4] = molecular target: SHP2 N-SH2 domain T42A
[5] = molecular target: SHP2 N-SH2 domain T52S
[6] = molecular target: SHP2 N-SH2 domain wild-type

Measured: enrichment score
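Note: displayed peptides selected on beads carrying the immobilized SH2 domain, with library peptides lacking any tyrosine serving as negative controls.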

AQVDTYCRHNF [HLA-DRB1_Y107_A103Q_YF]
inactive: [1] 0.658 | [2] 1.29 | [3] 0.896 | [4] 0.948 | [5] 0.893 | [6] 1.08

AAVDNYCRHNY [HLA-DRB1_Y107_T106N]
inactive: [1] 1.12 | [2] 1.09 | [3] 1.18 | [4] 0.997 | [5] 1.19 | [6] 1.2

AAVDTVCRHNF [HLA-DRB1_Y107_Y107V_YF]
inactive: [1] 0.907 | [2] 1.14 | [3] 1.19 | [4] 2.35 | [5] 1.32 | [6] 1.64

AAVDTYCRHNF [HLA-DRB1_Y107_YF]
inactive: [1] 1.18 | [2] 1.58 | [3] 1.17 | [4] 1.17 | [5] 1.13 | [6] 1.71

YCRHNYGAVES [HLA-DRB1_Y112_V114A]
inactive: [1] 2.14 | [2] 1.93 | [3] 2.14 | [4] 1.51 | [5] 2.03 | [6] 1.72

VCRHNYGVVES [HLA-DRB1_Y112_Y107V]
inactive: [1] 1.53 | [2] 1.61 | [3] 1.59 | [4] 1.49 | [5] 1.47 | [6] 1.51

FCRHNYGVVES [HLA-DRB1_Y112_YF]
inactive: [1] 2.14 | [2] 2.04 | [3] 1.98 | [4] 1.78 | [5] 2.17 | [6] 1.97

QKFMAYLSQGG [HLCS_Y236]
inactive: [1] 1.8 | [2] 1.28 | [3] 1.19 | [4] 1.39 | [5] 1.33 | [6] 1.27

QKFMAYLSQGW [HLCS_Y236_G241W]
inactive: [1] 1.84 | [2] 1.56 | [3] 1.84 | [4] 1.7 | [5] 1.58 | [6] 1.64

PLRADYLIARV [HLCS_Y635]
inactive: [1] 0.866 | [2] 0.843 | [3] 0.846 | [4] 1.02 | [5] 0.994 | [6] 1.13

PLRANYLIARV [HLCS_Y635_D634N]
inactive: [1] 1.68 | [2] 1.92 | [3] 1.74 | [4] 1.89 | [5] 1.76 | [6] 1.86

PLRAYYLIARV [HLCS_Y635_D634Y]
active: [1] 4.08 | [2] 3.87 | [3] 3.85 | [5] 3.34 | [6] 3.96
inactive: [4] 2.99

PLRAFYLIARV [HLCS_Y635_D634Y_YF]
inactive: [1] 1.54 | [2] 1.34 | [3] 1.2 | [4] 1.26 | [5] 0.944 | [6] 1.05

DDKQPYEKKAA [HMGB1_Y144]
inactive: [1] 0.466 | [2] 0.584 | [3] 0.365 | [4] 0.537 | [5] 0.406 | [6] 0.49

KLKEKYEKDIA [HMGB1_Y155]
inactive: [1] 0.8 | [2] 0.844 | [3] 1.02 | [4] 0.94 | [5] 0.919 | [6] 0.733

RKMSSYAFFVQ [HMGB1_Y16_G11R]
inactive: [1] 3.2 | [2] 2.66 | [3] 2.63 | [4] 2.46 | [5] 2.59 | [6] 2.79

FSMGCYEFSLG [HMGCL_Y198_I200F_YF]
inactive: [1] 0.811 | [2] 1.48 | [3] 1.3 | [4] 1.14 | [5] 0.726 | [6] 1.97

LSIQCYLRALD [HMGCS2_Y262]
inactive: [1] 2.75 | [2] 2.42 | [3] 2.05 | [4] 1.48 | [5] 1.39 | [6] 3.02

LSIQCYLRASD [HMGCS2_Y262_L266S]
inactive: [1] 0.927 | [2] 0.968 | [3] 0.931 | [4] 0.699 | [5] 0.9 | [6] 1.18
